This experiment deals with T1, human CD28 (human, UniProt P10747 19-220).
T1 construct: whole, on cells; also called huCD28
The experiment can be described thus: flow cytometry, bivalent mAb on Jurkat cells. As for the experimental part: Cells were harvested, checked for viability, and counted. 200'000 cells were incubated for 15 minutes at 4° C. with increasing concentrations of the antibodies diluted in FACS buffer (PBS 2% BSA). Cells were washed twice with cold FACS buffer and re-incubated for further 15 minutes at 4° C. with a suitable anti-human IgG secondary antibody. Cells were washed twice with cold FACS buffer and resuspended in 150 μl FACS buffer with a compatible viability marker. Binding of antibodies to living cells was measured by flow cytometry using a Cytoflex Platform (Beckman Coulter). Data was analyzed with FlowJo™ v10 software (BD Life Sciences) and dose-response binding curves were drawn using GraphPad Prism 9 software. AD84 GPC3 arm of the GPC3×CD3 bispecific antibody and P44, P30, P111 GPC3 arms of the GPC3×CD28 bispecific antibodies of this invention were selected from this screening process based on their specificity and binding signal intensity to GPC3 positive cells.
The binding capacity of the anti-CD28 antibody arms of the invention, tested as bivalent mAbs, was assessed using Jurkat cells (Jurkat Clone E6-1, ATCC TIB 152) by flow cytometry. The flow cytometry methodology was the same as the one described above. AI3 and AI10 CD28 binding arms were selected from this screening process based on their specificity and binding signal intensity to CD28 positive cells.
A general note: A flow cytometer gives signals particle by particle.

T1 sequence (P10747 19-220): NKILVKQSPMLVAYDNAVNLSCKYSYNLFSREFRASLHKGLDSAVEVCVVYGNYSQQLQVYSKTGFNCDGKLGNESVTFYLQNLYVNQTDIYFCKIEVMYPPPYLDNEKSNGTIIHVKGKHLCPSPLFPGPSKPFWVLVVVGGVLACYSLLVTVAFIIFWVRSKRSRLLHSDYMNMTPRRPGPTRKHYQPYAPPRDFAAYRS

B1: AI3 anti-CD28 bivalent mAb (antibody, V domains shown)
VH: [gap - about 120 residues]
VL: DIVMTQSPDSLAVSLGERATINCKSSQSVLYSSNNKNYLAWYQQKPGQPPKLLIYWASTRESGVPDRFSGSGSGTDFTLTISSLQAEDVAVYYCQQNLRPPETFGQGTKVEIK
As for B1, the binding result is given as “binds”.

The record behind these values is patent US20230287146A1 (LAMKAP BIO GAMMA, published 2023).
